Results taken from PubChem BioAssay AID1159614 (National Center for Advancing Translational Sciences (NCATS), 2016).
The whole screen tested about 45,000 compounds, of which about 65 (0.1%) were called active. Calls come from the whole dose curve; as a rule, active = well fitted activation curve with a large enough effect; inconclusive = small, poorly fitted or top-dose-only effect; inactive = no such curve, though single readings can be large or run the other way. This is one part of the list.

Each compound was assayed against Galactocerebrosidase (Homo sapiens) (UniProt P54803) (assay: A Novel Cell-Based Assay to Identify Small Molecules for B -Galactocerebrosidase). Conditions: 145M-Twi-hGALC-G270D cells (Twitcher mouse brain line with human GALC G270D), HMU-beta-Gal fluorescence, 48 h; series mostly up to 57.5 µM; activation: at the top concentration.
UniProt P54803, sequence (P54803 whole entry, looked up): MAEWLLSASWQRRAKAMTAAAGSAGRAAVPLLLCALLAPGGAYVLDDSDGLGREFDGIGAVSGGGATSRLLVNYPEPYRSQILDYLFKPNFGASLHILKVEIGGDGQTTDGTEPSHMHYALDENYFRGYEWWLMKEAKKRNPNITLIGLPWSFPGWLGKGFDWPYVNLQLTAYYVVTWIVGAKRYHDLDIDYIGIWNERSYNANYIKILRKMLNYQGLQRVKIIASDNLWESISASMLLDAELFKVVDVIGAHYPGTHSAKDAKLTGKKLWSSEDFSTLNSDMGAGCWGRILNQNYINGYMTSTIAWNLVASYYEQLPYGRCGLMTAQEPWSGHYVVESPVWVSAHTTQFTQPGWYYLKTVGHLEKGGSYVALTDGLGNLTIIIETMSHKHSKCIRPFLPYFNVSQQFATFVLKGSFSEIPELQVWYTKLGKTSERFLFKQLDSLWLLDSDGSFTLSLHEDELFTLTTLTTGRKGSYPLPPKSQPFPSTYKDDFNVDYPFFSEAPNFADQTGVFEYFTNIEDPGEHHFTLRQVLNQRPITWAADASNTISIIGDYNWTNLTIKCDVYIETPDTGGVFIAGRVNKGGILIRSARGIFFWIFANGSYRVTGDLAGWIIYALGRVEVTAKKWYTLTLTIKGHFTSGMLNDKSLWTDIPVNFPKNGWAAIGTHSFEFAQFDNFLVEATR
Source text: Lysosomal storage diseases (LSDs) are caused by genetic mutations in genes encoding proteins important for normal lysosomal function. Globoid cell leukodystrophy (GLD), mostly known as Krabbe disease, is a prototype of the neurological LSDs caused by deficiency of beta-galactocerebrosidase (GALC). In brain specimens of GLD patients, psychosine levels are substantially elevated. At elevated concentrations, psychosine becomes cytotoxic to neuronal cells, particularly to oligodendrocytes (OLG), neural cells responsible for myelin formation. Therefore, the biochemical disturbances in GLD are manifested by different degrees of brain demyelination resulting in a broad spectrum of neurological manifestations. Most of the FDA-approved therapies are based on enzyme replacement therapeutic (ERT) agents, which treat non-neurological symptoms of Gaucher disease, Fabry disease, few mucopolysaccharidoses and Pompe disease. Unfortunately, in GLD, a primarily neurological LSD, ERT agents, as large molecular weight molecules unable to cross the blood-brain barrier, which makes this an inefficacious therapeutic approach. In GLD, increasing the residual GALC activity just above the critical threshold (~10% of wild type enzymatic activity), the cytotoxic levels of psychosine will be reduced, avoiding the OLGs apoptosis and the subsequent demyelination process. This will translate in disease stabilization and amelioration of GLD patient symptoms.
A cell-based assay in 1,536-well plate format was developed to implement a quantitative high-throughput screening (qHTS) assay using GLD-disease relevant cells to identify small molecules that produce enhancements of the residual enzymatic activity levels of mutants GALC found and prevalent in GLD patients. Compounds that are active may therefore have some therapeutic application for GLD. After the treatment of live cells for a determined period, using a fluorescent GALC specific substrate, the mutant residual GALC activity is measured. This cell-based qTHS assay was used to screen part of the MLPCN library for small molecule able to increase the mutant GALC enzymatic activity. In this assay, increased fluorescent signal corresponds to enhanced levels of mutant GALC residual enzymatic activity. Activation is the desired outcome for this assay.
NIH Chemical Genomics Center [NCGC]
NIH Molecular Libraries Probe Centers Network [MLPCN]
Assay Submitter (PI): Gustavo Maegawa MD,PhD, University of Florida, Gainesville, FL
2)#Two cell lines were established for the assay: 145M-Twi-hGALC-G270D (brain-derived Twitcher cell line stably expressing human GALC-G270D) and 145M-Twi-hGALC-WT (same 145M-Twi stably expressing human GALC wild type). The Twitcher is the murine C57B/6 model for GLD with naturally occurring homozygous nonsense GALC mutation. The 145M-Twi cell line was established at Maegawa lab (Ribbens J et al 2014).
a.#Media: DMEM/F12 (1:1) with 10% fetal bovine-serum (FBS) with penicillin/streptomycin (PS-1X - 100 I.U./mL of penicillin+100 ug/mL of streptomycin).
b.#The 6-Hexadecanoylamino-4-methylumbelliferyl-b-D-galactoside (HMU-B-gal) substrate was prepared as per Wiederschain et al 1992. Using 20-mL borosilicate tubes, 2.20 mg of HMU-b-Gal was added in each tube to prepare substrate-film with a final air-nitrogen stream evaporation to remove all diluent solvents.
c.#The HMUb-Gal substrate buffer consists of 0.2 M Na2HPO4 (sodium phosphate dibasic)/ 0.1 M Citric Acid with the pH adjusted to 5.2 using HCl. Sodium Azide at 0.02% and Sodium Taurocholate (NaTC) at 1 mg/mL were added to this substrate buffer.
d.#The HMU-b-Gal stopping buffer consist of 0.5 M NaHCO3 (sodium bicarbonate) /0.5 M Na2CO3 (sodium carbonate). […] Triton X-100 at 0.25% was added.
4)#Preparation of HMU-b-Gal substrate tubes
Adding 18.6 mL of the HMUb-Gal substrate buffer to each 20-mL tube (2.20 mg of HMU-b-Gal) will reach a concentration of 0.2 mM. Vortex well the tube until the solution is fully homogenized (clear cloudy solution). […]
Note: 0% is about no effect; nearly all actives have a fitted effect of over 65% in size.

activation, inactive:
CC1CCCCN1Cc1c(O)ccc2c(=O)c(-c3ccccc3)coc12 (stereo unspecified) 1.3%
COc1cccc(CNS(=O)(=O)c2ccc(N3CCCCS3(=O)=O)cc2)c1 -11%
CCOC(=O)C1=C(CN2CCCCC2)NC(=O)NC1c1ccc(C)cc1 (stereo unspecified) 4.6%
Cc1ccc(CNC(=O)c2sc3nc(-c4ccc(F)cc4)ccc3c2N)cc1 1.52%
COc1ccc(Cn2ccc3nc(C)c(C(=O)NCc4ccc(OC)cc4OC)cc3c2=O)cc1 -1.79%
COC(=O)c1ccccc1NC(=O)CCc1c(C)nc2c(c(C)nn2-c2ccccc2)c1C -12.3%
COc1ccc(-n2nnc(-c3nc(-c4ccccc4C)no3)c2N)cc1Cl -7.98%
COc1ccc(C2CC(=O)c3c([nH]c(C(=O)OC4CCCCCC4)c3C)C2)cc1OC (stereo unspecified) -13.1%
COc1cccc(CNC(=O)CCCn2nc(C)n3c(cc4sccc43)c2=O)c1 -7.56%
CCOC(=O)c1cnc2c(C)cc(Cl)cc2c1NCCc1ccc(OC)c(OC)c1 5.01%
O=C(Cn1ncc2c([nH]c3ccccc32)c1=O)NCc1cccc(Cl)c1 -9.44%
COc1ccc(NC(=O)C(C)n2c(C)c3cnn(-c4ccccc4)c(=O)c3c2C)cc1Cl (stereo unspecified) -22.3%
CCOC(=O)c1cc(-c2ccc(F)cc2)n(CCC(=O)NCc2ccccc2OC)c1C -41.6%
CC(C)COc1ccc(-c2nonc2NC(=O)c2ccc(F)cc2)cc1 -0.126%
O=C(NCCc1ccccc1)c1ccc(CSc2nc3ccncc3n2Cc2ccccc2F)cc1 -17%
Cc1ccc(N2CC(NC(=O)c3ccco3)CC2=O)cc1C (stereo unspecified) -3.76%
O=C(Nc1nnc(S(=O)(=O)N2CCCC2)s1)c1ccccc1F 1.75%
Cc1cccc(OCC(=O)N(Cc2ccc(C(C)C)cc2)Cc2ccco2)c1C -11.8%
CCN(C(=O)c1nn(-c2ccc(C)cc2)c(=O)c2c1c1ccccc1n2C)c1ccc(F)cc1 -4.58%
COc1ccc(CNC(=O)CN2C(=O)CSc3ccc(S(=O)(=O)N4CCCC4)cc32)cc1 -20.9%
CCCCNC(=O)CN1C(=O)COc2ccc(S(=O)(=O)N3CCCC3)cc21 -4.38%
CCCn1c2ccccc2c2cnn(CC(=O)NCc3cc(OC)ccc3OC)c(=O)c21 -14.6%
O=C(Nc1ccccc1OCc1cc(=O)n2ccccc2n1)c1ccccc1F -8.03%
CC1=C(C(=O)OCC2CCCCC2)C(c2ccc(Cl)cc2Cl)CC(=O)N1 (stereo unspecified) -5.14%
CSc1cccc(NC(=O)Cn2cnc(S(=O)(=O)N3CCCC3)c2)c1 -8.77%
Cc1ccc(C)c(Nc2nc3nonc3nc2Nc2cccc(C)c2C)c1 -5.86%
COc1ccc(Cl)cc1NC(=O)N1CCC(CN2CCCCCC2)CC1 -5.7%
Cc1cccc(Cn2cc(C(=O)Nc3ccc(S(N)(=O)=O)cc3)ccc2=O)c1 -7.72%
CCc1ccccc1NC(=O)C(C)n1nc(-c2ccc(C)c(C)c2)ccc1=O (stereo unspecified) -10.6%
COc1ccc(NC(=O)CN(C)S(=O)(=O)c2cccc3nsnc23)cc1 -13.9%
COC(=O)N/N=C/c1c[n+]([O-])c2ccccc2[n+]1[O-] 5.88%
COc1cc2nc(Nc3ccc(F)cc3)nc(N)c2cc1OC -7.69%
COC(=O)c1ccc(Cn2nnc3sc4c(c3c2=O)CCCC4)cc1 -15.4%
COc1ccc(CNC(=O)C(=O)NCC(c2ccco2)S(=O)(=O)c2ccc(C)cc2)cc1 (stereo unspecified) 2.76%
CCOC(=O)c1cccc(NC(=O)C(Cc2ccccc2)NS(=O)(=O)c2cccc3nsnc23)c1 (stereo unspecified) -5.88%
CC(=O)c1ccc(NC(=O)c2nc3ccccc3n(C)c2=O)cc1 -21%
CN(C(=O)CN(CCO)CC(=O)N(C)C(C)(C)Cc1ccccc1)C(C)(C)Cc1ccccc1 -7.63%
CCn1nc(C)c2c(-c3ccccc3)cc(=O)n(C(C)C(=O)NCc3ccc(C)cc3)c21 (stereo unspecified) -33.4%
CCCCCNC(=O)CCn1c(=O)[nH]c2ccccc2c1=O -15.8%
CCN(CC)c1ccc(NC(=O)c2cc3c(=O)n4cccc(C)c4nc3n2C)c(C)c1 1.26%
O=C(CSC1=Nc2ccccc2N=C(c2ccc(F)cc2)C1)NCc1ccc(Cl)cc1 -13.5%
Cc1cc(S(=O)(=O)NCC(c2ccc(N(C)C)cc2)N2CCOCC2)ccc1F (stereo unspecified) -11.1%
Cc1ccc(CN(C(=O)COc2ccc(Cl)cc2Cl)C2CCS(=O)(=O)C2)o1 (stereo unspecified) -17.8%
Cc1[nH]c(=O)[nH]c(=O)c1S(=O)(=O)N1CCN(c2cccc(Cl)c2)CC1 -5.11%
COc1ccc(/C=C/c2nc3ccccc3c(=O)n2-c2cccc(C(F)(F)F)c2)cc1 -15.9%
N#Cc1c(Nc2cccc(F)c2)sc(C(=O)c2ccc(Cl)cc2)c1N -11.9%
CCN(c1ccccc1)S(=O)(=O)c1ccc2[nH]cc(C(=O)NCc3ccc(C)cc3)c(=O)c2c1 -0.701%
Clc1ccc(CNc2cc(-c3ccccc3)nc3nncn23)cc1 -23.3%
Cc1ccc(C)c(CN2C(=O)CSc3ccc(C(=O)NCCc4ccc(Cl)cc4)cc32)c1 -6.83%
CCCNC(=O)Cn1nc(-c2ccc(C)c(C)c2)c2cnc3ccc(F)cc3c21 -19.2%
O=C(Nc1cccc(C(F)(F)F)c1)Nc1nnc(N2CCCCC2)s1 0.8%
COc1ccccc1CNC(=O)CN1C(=O)CCn2nc(-c3ccccc3)cc21 -17.5%
COc1ccc(-c2nc3sc(CCNS(=O)(=O)c4ccc(F)c(C)c4)c(C)n3n2)cc1 -16.6%
Cc1ccc(OCC(=O)Nc2ccc3nc(Nc4cccc(Cl)c4)cc(C)c3c2)cc1 -10.6%
Cc1cc(C)nc(NS(=O)(=O)c2ccc(N)cc2)n1 -12.9%
COc1ccc(N2CC(NC(=O)c3ccc(OC(C)C)cc3)CC2=O)cc1 (stereo unspecified) -18.1%
CCc1ccccc1NC(=O)Nc1cc(C(=O)NCc2ccc(OC)cc2)ccc1N1CCCC1 -12.9%
Cc1noc(C)c1S(=O)(=O)N1CCCC(C(=O)Nc2ccc(C(C)C)cc2)C1 (stereo unspecified) -5.32%
O=C(c1ccccc1)n1nc(-c2ccco2)nc1NCc1ccccc1Cl -21.5%
COc1cc(NS(=O)(=O)c2ccc(N)cc2)ncn1 -13.3%
COc1ccc(N(C(=O)COc2ccccc2OC)S(=O)(=O)c2ccc(Cl)cc2)cc1 -27.3%
CCOCCCNC(=O)c1cc2c(=O)[nH]c3ccccc3c2n1C -10.5%
CC1(C)O[C@@H]2C[C@H]3[C@@H]4C[C@H](F)C5=CC(=O)C=C[C@]5(C)[C@@]4(F)[C@@H](O)C[C@]3(C)[C@]2(C(=O)CO)O1 -13.9%
CCOc1ccc(CNC(=O)C2CCN(c3nn4c(=O)cc(C)nc4s3)CC2)cc1 7.74%
CCOc1ccc(CCNC(=O)C2CCC(CNS(=O)(=O)c3ccc(Cl)cc3)CC2)cc1OCC (stereo unspecified) -5.02%
COc1cccc(-n2cc(C(=O)Nc3cc(C)c(Cl)cc3OC)c3ccccc3c2=O)c1 -0.458%
Cc1ccc(C)c(NC(=O)c2nnn(CC(=O)Nc3cccc(C)c3C)c2N)c1 -1.71%
O=c1c2c3c(sc2n(Cc2cc(=O)n4ccccc4n2)c(=O)n1-c1ccccc1)CCC3 -18.6%
O=c1cc(CN2CCN(S(=O)(=O)c3ccccc3)CC2)nc2sc(-c3ccccc3Cl)nn12 -8.18%
CCc1ccc(C(=O)c2cn(CC(=O)Nc3ccc4c(c3)OCCO4)c3ccc(C)cc3c2=O)cc1 -2.19%
O=C(CCSCc1ccccc1Cl)N1CCN(c2ccc(F)cc2)CC1 0.132%
CC(Oc1ccccc1)C(=O)N1CCN(Cc2cc(=O)n3nc(-c4ccccc4Cl)sc3n2)CC1 (stereo unspecified) -6.16%
COCc1cc(C)nc2sc3c(c12)NC(c1ccccc1C(=O)O)N(c1ccc(OC)cc1)C3=O (stereo unspecified) -11%
CC(=O)c1ccc(NC(=O)COc2ccccc2-c2nc(-c3ccccc3)no2)cc1 -1.06%
O=C(CS(=O)(=O)c1nc(-c2ccc(Cl)cc2)cn1-c1ccccc1)Nc1ccc(F)cc1F -39.8%
Cc1ccc(NC(=O)C(Cc2ccccc2)NS(=O)(=O)c2cccs2)cc1Cl (stereo unspecified) -7.4%
Cc1ccc(-c2noc(CSc3nnc(C)n3-c3ccc(C)cc3)n2)cc1 -14.3%
COc1ccccc1CNC(=O)CN1C(=O)c2cccnc2Oc2ccccc21 1.83%
COc1ccc(-c2cc(C(C)=O)c(C)n2CCC(=O)NC2CCCCC2)cc1 -8.46%
Cc1ccc(-n2c(SCCC(C)C)nc3sc4c(c3c2=O)CC(C)(C)OC4)cc1 -17.5%
CCOc1ccc(CNC(=O)C2CCN(C(=O)c3sccc3-n3cccc3)CC2)cc1 -17.3%
COc1ccc(NC(=O)CCCc2nnc3n(CCC(C)C)c(=O)c4sccc4n23)cc1Cl -5.02%
COc1ccc(OCCSc2nc3ccccc3n2CC(=O)N2CCOCC2)cc1 -9.68%
COc1ccc(/C=C/c2onc(C)c2S(=O)(=O)N2CCC(C(=O)N3CCCCC3)CC2)cc1 -8.44%
COc1cc(CNc2ccc3[nH]c(=O)[nH]c3c2)cc(Br)c1OCc1ccc(F)cc1 -6.29%
CN(C)c1cccc(C(=O)N2CCC(c3ccncc3)CC2)c1 0.415%
COc1ccccc1CNC(=O)c1cc2cc(C)ccc2n1C -10.9%
COCCNc1ncnc2onc(-c3ccc(F)cc3)c12 -28.3%
CC(C)Oc1ccc(C(=O)N2CC(=O)Nc3ccc(F)cc3C2c2ccc(F)cc2)cc1 (stereo unspecified) -6.18%
CCOc1ccc(CNC(=O)CN2C(=O)C3CCCCN3c3ccc(C(=O)N4CCCC4)cc32)cc1 (stereo unspecified) -12.6%
CCc1cccc(C)c1NC(=O)C(CC)n1ncn2c(cc3cc(C)ccc32)c1=O (stereo unspecified) -15.7%
Cc1ccc(C)c(NC(=O)Cn2c(=O)n(Cc3ccc4c(c3)OCO4)c(=O)c3ccc(C(=O)NC4CCCCC4)cc32)c1 -7.83%
Cc1ccc(S(=O)(=O)c2nc(S(=O)(=O)c3ccc(C)cc3)c(NC(C)C)s2)cc1 -11.2%
CCOc1ccc(CNC(=O)c2cnc3sc(N4CCCCCC4)nn3c2=O)cc1OC -8.18%
O=C(CSc1nc(-c2ccccc2)nc2c1CCCC2)c1ccc(Cl)cc1 -12.4%
O=C(O)CCc1ccc(-c2cccs2)n1CC(=O)Nc1ccccc1C(F)(F)F -17.7%
